# Measured values reported in paper PMC4336329 (PLoS ONE, 2015).
# The campaign covered roughly 310,000 compounds. About 14,000 (4.5%) showed an effect of 50% or more. Effects have a minus sign here. The list shows a part of the results.
# Target: human ether-à-go-go-related gene (hERG) potassium channel (human, UniProt Q12809)
# Test: primary screen, population patch clamp on CHO cells stably expressing hERG
# 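Also: peak tail current of the secondary pulse compared with the same well before compound.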
# human ether-à-go-go-related gene (hERG) potassium channel, sequence (Q12809 whole entry, looked up): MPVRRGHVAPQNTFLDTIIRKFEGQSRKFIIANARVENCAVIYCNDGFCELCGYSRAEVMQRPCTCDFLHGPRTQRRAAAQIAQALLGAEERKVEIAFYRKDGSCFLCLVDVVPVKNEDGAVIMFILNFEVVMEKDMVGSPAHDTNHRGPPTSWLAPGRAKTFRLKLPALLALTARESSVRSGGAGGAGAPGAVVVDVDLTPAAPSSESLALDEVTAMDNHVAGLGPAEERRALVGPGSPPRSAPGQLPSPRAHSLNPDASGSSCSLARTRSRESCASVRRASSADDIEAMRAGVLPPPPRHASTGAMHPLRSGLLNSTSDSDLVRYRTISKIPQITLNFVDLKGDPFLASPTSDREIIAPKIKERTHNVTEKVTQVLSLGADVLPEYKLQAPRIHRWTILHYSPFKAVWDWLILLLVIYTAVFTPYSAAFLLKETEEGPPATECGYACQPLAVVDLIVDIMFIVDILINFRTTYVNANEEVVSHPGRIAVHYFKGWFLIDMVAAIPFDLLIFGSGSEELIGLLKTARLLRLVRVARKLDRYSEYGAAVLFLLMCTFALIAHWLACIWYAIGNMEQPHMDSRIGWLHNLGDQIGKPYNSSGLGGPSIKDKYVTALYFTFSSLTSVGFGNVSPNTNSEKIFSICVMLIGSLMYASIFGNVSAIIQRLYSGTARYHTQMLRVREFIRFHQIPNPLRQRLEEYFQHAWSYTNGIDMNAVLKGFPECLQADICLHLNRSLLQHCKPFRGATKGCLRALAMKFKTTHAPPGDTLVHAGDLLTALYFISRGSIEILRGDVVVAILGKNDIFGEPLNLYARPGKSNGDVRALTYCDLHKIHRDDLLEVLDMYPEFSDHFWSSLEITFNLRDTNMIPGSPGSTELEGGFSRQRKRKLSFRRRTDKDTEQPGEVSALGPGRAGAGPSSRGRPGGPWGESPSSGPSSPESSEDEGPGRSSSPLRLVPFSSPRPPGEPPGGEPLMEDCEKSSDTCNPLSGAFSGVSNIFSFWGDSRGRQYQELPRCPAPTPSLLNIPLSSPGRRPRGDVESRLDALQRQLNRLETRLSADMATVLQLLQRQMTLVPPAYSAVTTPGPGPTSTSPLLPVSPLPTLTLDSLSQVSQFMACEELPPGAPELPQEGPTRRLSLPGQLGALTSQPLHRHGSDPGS
row,SMILES,"hERG current change (%, negative = inhibition) at 10uM"
1,COc1ccc(/C=C/c2c(-c3cccc(C)c3)oc3ccc(N4CCOCC4)cc23)cc1,22.5%
2,CCCOC(=O)Cc1c(O)c2ccccc2[nH]c1=O,16.9%
3,COCCCn1c(C)nnc1-c1cnn(-c2ccccc2)c1N,19.7%
4,Cc1nn(CC(=O)Nc2ccccn2)c(C)c1[N+](=O)[O-],8.36%
5,COc1ccc(CS(=O)(=O)CC(C)(O)c2ccccc2Cl)cc1 (stereo not drawn),2.63%
6,CCn1c(SCC(=O)Nc2nccs2)nnc1C1CC1,19.8%
7,O=C(Nc1nccs1)C(c1ccccc1)N1CCCC1 (stereo not drawn),-7.89%
8,O=C(CN1C(=O)C2CC=CCC2C1=O)NCC1COc2ccccc2O1 (stereo not drawn),1.42%
9,CC1CCCC(C)N1/N=C/c1ccc([N+](=O)[O-])cc1 (stereo not drawn),-16.2%
10,CC1(/[N+]([O-])=C/c2ccccc2F)CCCCC1=O (stereo not drawn),25.2%
11,Cc1cc(C(=O)NNC(=O)COc2c(C)cc(Br)cc2C)n[nH]1,18%
12,CCOc1ccccc1NC(=O)COC(=O)/C=C/c1ccc(OC)c(OC)c1,19.9%
13,CSc1ccc(NC(=O)Nc2cc(C)ccn2)cc1,16.1%
14,CC(C)(C)CN1C(=O)C(=O)NC[C@H]1Cc1ccc(O)cc1,-1.88%
15,Cc1ccc(NC2=NCCCCC2)cc1C.Cl,12.1%
16,Cc1cc(N(CN2CCCC2=O)C(=O)c2ccc(OC(C)C)cc2)no1,-2.94%
17,C/C(=N\NC(=O)c1ccccc1[N+](=O)[O-])c1ccc(Br)s1,-9.32%
18,O=C(NCCc1cccs1)c1ccc(Cl)c(Cl)c1,-1.24%
19,Cc1cc(-c2c(C)[nH]n(-c3ccc(Cl)cc3)c2=O)n(-c2ccccc2)n1,12.8%
20,CC(=O)NCC(=O)Nc1ccc(Br)cc1C(=O)c1ccccc1,-19%
21,CCOC(=O)c1nnn(CC(=O)N2N=C(c3ccc(Cl)cc3)CC2c2ccc(OC)cc2)c1C(=O)OCC (stereo not drawn),-12%
22,Cc1cc(C)cc(N(CC(=O)O)S(=O)(=O)c2c(C)[nH]c(=O)[nH]c2=O)c1,15.9%
23,O=C(NNC1=Nc2ccccc2SC1)c1ccccc1F,18.6%

row,SMILES,"hERG current change (%, negative = inhibition) at 10uM"
1,Cc1ccccc1C(=O)NNC(=S)NC(=O)COc1ccccc1,13.3%
2,CC(C)N(C(=O)Cn1cc(SCC(N)=O)c2ccccc21)C(C)C,7.8%
3,COc1ccc(S(=O)(=O)Nc2ccc(C)cc2)cc1N(C)S(=O)(=O)c1ccc(Cl)cc1,-3.56%
4,Cc1cc2ncn(C(=O)c3c(-c4ccccc4)noc3C)c2cc1C,-23.7%
5,CC(C)(C)OC(=O)N1CCC(c2c(C(=O)NCC3CCN(C4CCCC4)C3)cnn2-c2cccc(Cl)c2)CC1 (stereo not drawn),-21.1%
6,CCOc1ccc(CCNc2nc3ccccc3n3cnnc23)cc1OCC,-11.6%
7,CCCNC(=S)N1CCCC(c2nc3ccccc3[nH]2)C1 (stereo not drawn),-47.3%
8,Fc1cccc(CCN2CCN=C2Nc2ccccc2)c1,-18.1%
9,CCOc1ccc(NC(=O)NCc2ccco2)cc1,16.4%
10,Cn1cnc2c(oc3ccccc32)c1=O,9.26%
11,CCc1ccc(/C(C)=N/NC(=O)c2c[nH]c3ccccc23)s1,17.1%
12,CC1=NN(c2nc(-c3ccc(C)cc3)cs2)C(=O)C1N=Nc1ccccc1O (stereo not drawn),9.21%
13,COc1ccccc1CNC(=O)C1CC(c2ccccc2F)=NO1 (stereo not drawn),-8.13%
14,COC(=O)c1sc(N2C(=O)c3oc4ccccc4c(=O)c3C2c2cccc(O)c2)nc1C (stereo not drawn),-29.9%
15,C=CCc1cc(OC)ccc1OCCOCCC(C(=O)OCC)C(=O)OCC,-2.91%
16,Cc1ccc(N(C(=O)CNC(=O)c2ccco2)C(C(=O)NC2CCCC2)c2ccncc2)cc1F (stereo not drawn),-5.85%
17,CCN(CC)c1nc(C)nc2c1cnn2CCc1ccccc1.Cl,-3.51%
18,COc1cc(C(=O)N2CCN(c3cccc(C)c3C)CC2)cc(OC)c1OC,-12.2%
19,O=C(O)C1CCCN1S(=O)(=O)c1cc(Cl)ccc1Cl (stereo not drawn),-0.53%
20,O=C(Nc1ccc(N2CCN(C(=O)c3ccc(Cl)cc3)CC2)cc1)c1ccc2c(c1)OCCO2,-8.29%
21,O=C(NC(=S)Nc1ccc2c(c1)OCCO2)c1cccc2ccccc12,-0.118%
22,CCOc1cccc2cc(C(=O)NCc3ccc(Cl)cc3)c(=N)oc12,19.2%
23,CCOc1ccc(CC(=O)NNC(=S)NCCc2ccccc2)cc1,5.62%

row,SMILES,"hERG current change (%, negative = inhibition) at 10uM"
1,CCOC(=O)C1(CCOc2ccccc2)CCN(Cc2ccc3c(c2)OCCO3)CC1,-73.3%
2,O=C(CCNS(=O)(=O)c1cccc2nsnc12)N1CCN(c2ccccn2)CC1,-24%
3,O=c1[nH]c(/C=C\c2cccs2)nc(O)c1[N+](=O)[O-],-4.76%
4,CCN(CC(=O)NCc1cccs1)C(=O)c1cccc(S(=O)(=O)Nc2ccc(C)cc2)c1,0.432%
5,COc1ccc(S(=O)(=O)Nc2cccc(S(=O)(=O)NC3=NCCC3)c2)cc1[N+](=O)[O-],18.6%
6,CC(=O)Nc1cc2c3c(c1)CCN3C(=O)CC2,23.4%
7,ClC1=C(Cl)C2(Cl)C3C(Cl)C=CC3C1(Cl)C2(Cl)Cl (stereo not drawn),5.58%
8,Cc1ccc(-c2nn(CC(=O)NCCN3CCOCC3)c(=O)c3ccccc23)cc1,-16.1%
9,COc1ccc(N=Cc2nc(-c3ccco3)oc2O)cc1,-7.62%
10,Cc1ccc(Cl)cc1NS(=O)(=O)N1CCOCC1,4.3%
11,Cc1cc(C)cc(NC(=O)CN2CCC(NC(=O)c3ccccc3F)CC2)c1,-13%
12,Cc1ccc(-n2nnnc2SCC(=O)Nc2nc(-c3ccc(F)cc3)cs2)cc1C,1.81%
13,COc1ccc2c(c1)C(c1ccc(C)o1)=NNC(c1cccnc1)=N2,-8.45%
14,COc1ccccc1C(=O)Nc1ccnn1C1CCN(CC2CC=CCC2)CC1 (stereo not drawn),-82.3%
15,O=C(Nc1cccnc1)C1CCC(CNS(=O)(=O)c2cccc3nsnc23)CC1 (stereo not drawn),-15.3%
16,COc1cccc(C(=O)Nc2ccc3c(c2)C(=O)N(CC2CCCO2)C3=O)c1 (stereo not drawn),-28.8%
17,Cc1ccccc1NC(=O)CN1C(=O)NC(C)(c2ccc3c(c2)OCO3)C1=O (stereo not drawn),9.53%
18,NNC(=O)c1ccc(Cn2cccn2)o1,5.58%
19,CCC(=O)NCC(c1ccco1)N1CCN(c2ccc(OC)cc2)CC1 (stereo not drawn),21.2%
20,Br.CCn1c2c(c(=N)c3ccccc31)CCC2,5.12%
21,Cc1nc(NC(=O)CN(C)S(=O)(=O)c2ccc(Br)cc2)sc1C,-9.45%
22,O/N=C1\CCC\C1=C/c1ccco1,-2.24%
23,Fc1ccc2nc3n(c2c1F)CCCCCC3,7.97%

row,SMILES,"hERG current change (%, negative = inhibition) at 10uM"
1,CCOc1c2ccccc2nn1CCO,17.5%
2,CCOC(=O)N1CCN(C(=O)COc2ccccc2[N+](=O)[O-])CC1,19.1%
3,O=C(Nc1ccncc1)c1cccc2ccccc12,5.23%
4,Cc1ccc(N2C(=O)CC(N(CCc3ccccc3)C(=S)Nc3ccc(N(C)C)cc3)C2=O)cc1 (stereo not drawn),10.3%
5,Nc1nc(Nc2ccccc2)nc2c1ncn2[C@@H]1O[C@H](CO)[C@@H](O)[C@H]1O,2.99%
6,COc1ccccc1NC(=O)Nc1nc(CC(=O)Nc2ccc(F)c(F)c2)cs1,-2.04%
7,CN(C(=O)COc1cc(C(F)(F)F)nn1C)c1ccccc1,88.5%
8,COc1c(CC=C(C)C)cc(C2CC(=O)c3c(O)cc(O)cc3O2)c(CC=C(C)C)c1O (stereo not drawn),1.13%
9,O=C(Cc1ccc(S(=O)(=O)N2CCCC2)s1)N1CCOCC1,-0.493%
10,O=C(CSc1nnc(C2CCCCC2)o1)Nc1ccccc1Cl,-11.5%
11,O=C(CC1SC(=O)NC1=O)Nc1ccc(Cl)cc1 (stereo not drawn),21.2%
12,COC(=O)Cc1cc(C)cc2c(=O)cc(-c3ccoc3)oc12,3.25%
13,COc1ccc(C2=NOC(Cn3nc(C(=O)NCc4cccs4)cc3-c3ccccc3)C2)cc1 (stereo not drawn),-51.3%
14,O=C(Nc1ccc2c(c1)OCCO2)c1cccc(Cl)c1,10.6%
15,CCOC(=O)c1c(NC(=O)C(=O)N/N=C/c2ccccc2O)sc2c1CCCCC2,8.65%
16,COc1cc(CCC(=O)NCc2ccc(Cl)cc2)cc(OC)c1OC,3.18%
17,Cc1cc(NC(=O)CSCC(=O)N(c2ccc(F)cc2)C(C(=O)NC2CCCCC2)c2ccc(O)c(O)c2)no1 (stereo not drawn),-9.11%
18,COc1ccc2c(CC(=O)NC3CCCc4ccccc43)coc2c1 (stereo not drawn),-9.56%
19,O=C(N/N=C/c1ccoc1)c1ccccc1F,16.1%
20,O=C(COC(=O)c1cc(Cl)ccc1O)Nc1ccc2c(c1)OCCO2,7.8%
21,CCCCC(=O)N1CC2(C)CN(C(=O)CCCC)CC(C)(C1)C2=O,-27.4%
